The assay addresses wild type HTLV-1 Tax (pCG-Tax) (HTLV-1) (UniProt P03409). Briefly: co-IP; HEK293T cells co-transfected with GST-SUV39H1 or GST and Tax; lysate in TNE buffer (10 mM Tris-HCl pH 7.8, 1% Nonidet P-40, 150 mM NaCl, 1 mM EDTA) immunoprecipitated with anti-Tax Lt-4; immunoblot with anti-SUV39H1 or anti-GST. (In general: In western blotting, separated proteins are transferred to a membrane and probed.)

Results are given in words; binding and its absence hold for the method and conditions named. Binding seen in cells or lysates may run through a third protein. Some binding calls cover weakened binding; strength is not graded here. Sequences can lack the tags named with a protein.

Experimental findings from article PMC1363732 are described below.

B1: GST-tagged SUV39H1 (pMEG-SUV39H1) (enzyme, UniProt O43463 1-412)
chain: MAENLKGCSVCCKSSWNQLQDLCRLAKLSCPALGISKRNLYDFEVEYLCDYKKIREQEYYLVKWRGYPDSESTWEPRQNLKCVRILKQFHKDLERELLRRHHRSKTPRHLDPSLANYLVQKAKQRRALRRWEQELNAKRSHLGRITVENEVDLDGPPRAFVYINEYRVGEGITLNQVAVGCECQDCLWAPTGGCCPGASLHKFAYNDQGQVRLRAGLPIYECNSRCRCGYDCPNRVVQKGIRYDLCIFRTDDGRGWGVRTLEKIRKNSFVMEYVGEIITSEEAERRGQIYDRQGATYLFDLDYVEDVYTVDAAYYGNISHFVNHSCDPNLQVYNVFIDNLDERLPRIAFFATRTIRAGEELTFDYNMQVDPVDMESTRMDSNFGLAGLPGSPKKRVRIECKCGTESCRKYLF
Consider B1, for which the binding result is listed as “binds”.
